Measurements published in PubChem BioAssay AID2451 (National Center for Advancing Translational Sciences (NCATS), 2010).
Where “and” joins values, the source holds several entries; their conditions need not be identical. Equal entries are not always repeated. Out of some 290,000 compounds screened, about 2,100 (0.72%) were called active. This list was built around the results that the source calls inconclusive (neither active nor inactive); the mix of calls is not that of the screen. Calls come from the whole dose curve; as a rule, active = well fitted inhibition curve with a large enough effect; inconclusive = small, poorly fitted or top-dose-only effect, or effect the other way; inactive = flat fitted curve, though single readings scatter. Where the call is inconclusive, the potency comes from a doubtful curve fit.
% is set by controls: 0 for no effect and ±100 for the full control effect; potency is the fitted concentration of half-maximal effect; tags give direction and shape of the fitted curve.
Note: nearly all actives have a fitted effect of over 55% in size.

What follows are compounds tested against Fructose-bisphosphate aldolase (Giardia intestinalis (strain ATCC 50803 / WB clone C6)) (UniProt A8B2U2) (assay: qHTS Assay for Inhibitors of Fructose-1,6-bisphosphate Aldolase from Giardia Lamblia). Settings: purified Giardia FBPA; activity, negative = inhibition: at 59.6 µM (top of the series) unless noted.
Sequence of UniProt A8B2U2 (A8B2U2 whole entry, looked up): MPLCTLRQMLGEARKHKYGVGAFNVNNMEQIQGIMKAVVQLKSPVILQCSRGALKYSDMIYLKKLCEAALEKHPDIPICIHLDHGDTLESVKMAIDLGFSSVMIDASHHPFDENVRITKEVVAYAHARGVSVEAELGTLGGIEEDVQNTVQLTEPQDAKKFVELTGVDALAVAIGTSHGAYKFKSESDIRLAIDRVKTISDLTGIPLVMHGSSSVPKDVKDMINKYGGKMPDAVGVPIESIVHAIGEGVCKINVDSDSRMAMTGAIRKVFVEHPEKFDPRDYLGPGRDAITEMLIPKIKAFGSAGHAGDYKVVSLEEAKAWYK
Procedure, shortened: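 Giardia FBPA (40 nM reagent) was preincubated 10 min at RT with compound (up to 57.5 uM final), then substrate plus GAPDH/TPI/NAD/arsenate coupling system with diaphorase/resazurin was added; resorufin fluorescence (525/598 nm) was read after 20 min.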
O=C(NCCN1CCCCC1)c1cc(Cl)ccc1Cl was tested, and the “activity, negative = inhibition” value was inactive: 12.1%.
In the case of Oc1ccc(Cn2ccnc2)c2cccnc12, the Potency is reported as inconclusive: 7.06 µM [inhibitor, single point].
COC(=O)c1c(C)n(-c2ccccc2)c2ccc(O)cc12 was tested, and the Potency was inconclusive: 15.8 µM [inhibitor, single point].
For O=C1NC(=O)/C(=C\c2cn(CC(=O)N3CCOCC3)c3ccccc23)S1, the Potency was inconclusive: 22.4 µM [inhibitor, single point].
In the case of Cc1cccc[n+]1C1C(c2ccccc2)C(C#N)=C(C(=C=[N-])C#N)NC1(O)C1CC1 (stereo not drawn), the Potency is reported as inconclusive: 12.6 µM [inhibitor, partial curve].
In the case of O=[N+]([O-])c1cccc(CN2CCN(Cc3ccc(Br)cc3)CC2)c1, the Potency is reported as inconclusive: 12.6 µM [inhibitor, partial curve].
With O=C(NCc1ccccc1)c1onc(CSc2ccccc2)c1C(=O)NCC1CC1 the “activity, negative = inhibition” value was inactive: -10.8%.
With CCOc1ccc(NC(=O)C(=S)NC2CCCCC2)cc1 the “activity, negative = inhibition” value was inactive: 1.78%.
With c1coc(-c2nc3nc4ccccc4nc3n2CC2CCCO2)c1 (stereo not drawn) the Potency was inconclusive: 17.7 µM [inhibitor, single point].
In the case of Cc1ccc2c(c1)c1nnc(SCC(=O)NC3CC3)nc1n2C, the “activity, negative = inhibition” value is reported as inactive: -5.76%.
In the case of O=C(OC1Cc2c(O)cc(O)cc2OC1c1cc(O)c(O)c(O)c1)c1cc(O)c(O)c(O)c1 (stereo not drawn), the Potency is reported as inconclusive: 9.98 µM [inhibitor, partial curve].
In the case of CN1C=CC2=C(C#N)C(N)C(C#N)(C#N)C(c3ccccc3)C2C1 (stereo not drawn), the Potency is reported as inconclusive: 17.7 µM [inhibitor, partial curve].
For CCC(C)NC(=O)[C@H]1N2C(=O)c3c(ccc(OC)c3OC)C2SC1(C)C (stereo partly drawn), the Potency was inconclusive: 15.8 µM [inhibitor, partial curve].
Cc1cc(OCC(O)CN2CCN(CCO)CC2)ccc1C(C)C (stereo not drawn) was tested, and the Potency was inconclusive: 15.8 µM [inhibitor, single point].
With CCCCNC(=O)C1CCC(CNc2c(N3CCC(C)CC3)c(=O)c2=O)CC1 (stereo not drawn) the “activity, negative = inhibition” value was inactive: -1.55%.
In the case of COc1cc(C(=S)N2CCOCC2)ccc1OS(=O)(=O)c1ccc(NC(C)=O)cc1, the “activity, negative = inhibition” value is reported as inactive: 22.1%.
O=C(O)Cc1nc2nc3c(c(=O)n2[nH]1)CCCC3 was tested, and the Potency was inconclusive: 12.6 µM [inhibitor, partial curve].
With COc1ccc(C(=O)NNC(=S)NC(=O)c2ccccc2[N+](=O)[O-])cc1 the Potency was inconclusive: 25.1 µM [activator, single point].
For Cc1ccc(C(=O)Nn2cnnc2)cc1, the activity, negative = inhibition was inconclusive: 44.9% [activator].
With COc1ccc(NCCNc2ccc(OC)cc2)cc1 the Potency was inconclusive: 14.1 µM [inhibitor, partial curve].
In the case of CC1CN(c2ccc([N+](=O)[O-])cc2Cl)CCN1S(C)(=O)=O (stereo not drawn), the “activity, negative = inhibition” value is reported as inactive: 0.324%.
Cc1ccccc1CC1(CO)CCCN(C(=O)c2cc(Cl)ccc2F)C1 (stereo not drawn) was tested, and the Potency was inconclusive: 15.8 µM [activator, single point].
With Cc1cc(NC(=O)C(C)Sc2nc(-c3ccccc3)cc(=O)[nH]2)no1 (stereo not drawn) the Potency was inconclusive: 22.4 µM [inhibitor, partial curve].
For O=C(Cc1ccccc1)NNC(=S)NC(=O)c1cccnc1, the Potency was active: 7.06 µM.
O=C1c2ccccc2NC(c2ccco2)N1O (stereo not drawn) was tested, and the Potency was inconclusive: 17.7 µM [inhibitor, single point].
In the case of COc1ccccc1NC(=S)NNC(=O)c1nn(C)cc1Cl, the Potency is reported as inconclusive: 17.7 µM [activator, single point].
For COc1ccccc1OCC(=O)N(Cc1nc(-c2ccccc2)no1)C1CCCCC1, the “activity, negative = inhibition” value was inactive: -3.42%.
In the case of C=CCOc1ccccc1CNc1ccc2c(c1)OCCO2, the Potency is reported as inconclusive: 7.06 µM [inhibitor, partial curve].
In the case of Clc1cccc(CN2CCc3c([nH]c4ccccc34)C2)c1, the Potency is reported as inconclusive: 11.2 µM [inhibitor, partial curve].
For CC(C)CC(=O)NC(=S)NNC(=O)c1ccc([N+](=O)[O-])cc1, the Potency was inconclusive: 17.7 µM [activator, partial curve].
For CCc1cccc(C)c1NC(=O)c1ccc(CN2CCc3ccccc3C2)cc1, the Potency was inconclusive: 19.9 µM [inhibitor, single point].
C#CCOCCOCCOCCNc1nc(N2CCN(C(=O)[C@H](C(C)C)n3cc(CCO)nn3)CC2)nc(N2CCN(C(=O)[C@H](CCCCN)n3cc(CCCC)nn3)CC2)n1 was tested, and the Potency was inconclusive: 31.5 µM [inhibitor, single point].
For CC1=Nc2ccccc2N=C(NC(=O)CN2CCN(c3ccc(F)cc3)CC2)C1c1ccccc1 (stereo not drawn), the “activity, negative = inhibition” value was inactive: -4.11%.
CCOC(=O)c1c(NC(=O)CN(C)C2CCN(C)CC2)sc(C(=O)Nc2ccccc2)c1C was tested, and the Potency was active: 19.9 µM.
For O=C(NC(=S)NCCc1ccccc1)c1ccco1, the Potency was inconclusive: 25.1 µM [inhibitor, single point].
For O=C(O)C1CCc2sc3[nH]c(=S)n(-c4ccccc4)c(=O)c3c21 (stereo not drawn), the Potency was active: 19.9 µM.
With Cc1ccc(C2CC(=O)N3CN(c4ccc(Br)cc4)CSC3=C2C#N)o1 (stereo not drawn) the Potency was inconclusive: 1.58 µM [inhibitor, full curve].
With Cc1ccccc1N1CCN(Cc2ccc([N+](=O)[O-])o2)CC1 the Potency was inconclusive: 22.4 µM [inhibitor, partial curve].
For Cc1cc(NC(=O)CCC(=O)N(CC(=O)NC2CCCC2)Cc2ccc3c(c2)OCO3)no1, the Potency was inconclusive: 17.7 µM [inhibitor, partial curve].
For Brc1ccccc1C1CC(c2ccccc2)=Nc2ccccc2N1 (stereo not drawn), the Potency was inconclusive: 15.8 µM [inhibitor, partial curve].
With Nc1c(Cl)cc(-c2csc(N3CCCC3c3nc4cc(Cl)c(Cl)cc4n3CCOCCO)n2)cc1Cl (stereo not drawn) the Potency was inconclusive: 31.6 µM [inhibitor, partial curve].
For COC(=O)CCC(=O)OC1(C)C(=O)C=C2C=C(C3CC3)N(C(CO)CO)C=C2C1=O (stereo not drawn), the Potency was inconclusive: 223 nM [inhibitor, full curve] and inconclusive: 561 nM [inhibitor, full curve].
For CN1CCOC(c2ccccc2)c2ccccc2C1 (stereo not drawn), the Potency was inconclusive: 10 µM [inhibitor, partial curve].
